Measured values: article PMC4643306
Residue numbers refer to the chain shown, from its start. Results are given in words; binding and its absence hold for the method and conditions named. Binding seen in cells or lysates may run through a third protein. Some binding calls cover weakened binding; strength is not graded here. For some of these results: Sequences can lack the tags named with a protein.

Chains of the proteins cited; added tags and fusions are not shown.
UniProt Q92878: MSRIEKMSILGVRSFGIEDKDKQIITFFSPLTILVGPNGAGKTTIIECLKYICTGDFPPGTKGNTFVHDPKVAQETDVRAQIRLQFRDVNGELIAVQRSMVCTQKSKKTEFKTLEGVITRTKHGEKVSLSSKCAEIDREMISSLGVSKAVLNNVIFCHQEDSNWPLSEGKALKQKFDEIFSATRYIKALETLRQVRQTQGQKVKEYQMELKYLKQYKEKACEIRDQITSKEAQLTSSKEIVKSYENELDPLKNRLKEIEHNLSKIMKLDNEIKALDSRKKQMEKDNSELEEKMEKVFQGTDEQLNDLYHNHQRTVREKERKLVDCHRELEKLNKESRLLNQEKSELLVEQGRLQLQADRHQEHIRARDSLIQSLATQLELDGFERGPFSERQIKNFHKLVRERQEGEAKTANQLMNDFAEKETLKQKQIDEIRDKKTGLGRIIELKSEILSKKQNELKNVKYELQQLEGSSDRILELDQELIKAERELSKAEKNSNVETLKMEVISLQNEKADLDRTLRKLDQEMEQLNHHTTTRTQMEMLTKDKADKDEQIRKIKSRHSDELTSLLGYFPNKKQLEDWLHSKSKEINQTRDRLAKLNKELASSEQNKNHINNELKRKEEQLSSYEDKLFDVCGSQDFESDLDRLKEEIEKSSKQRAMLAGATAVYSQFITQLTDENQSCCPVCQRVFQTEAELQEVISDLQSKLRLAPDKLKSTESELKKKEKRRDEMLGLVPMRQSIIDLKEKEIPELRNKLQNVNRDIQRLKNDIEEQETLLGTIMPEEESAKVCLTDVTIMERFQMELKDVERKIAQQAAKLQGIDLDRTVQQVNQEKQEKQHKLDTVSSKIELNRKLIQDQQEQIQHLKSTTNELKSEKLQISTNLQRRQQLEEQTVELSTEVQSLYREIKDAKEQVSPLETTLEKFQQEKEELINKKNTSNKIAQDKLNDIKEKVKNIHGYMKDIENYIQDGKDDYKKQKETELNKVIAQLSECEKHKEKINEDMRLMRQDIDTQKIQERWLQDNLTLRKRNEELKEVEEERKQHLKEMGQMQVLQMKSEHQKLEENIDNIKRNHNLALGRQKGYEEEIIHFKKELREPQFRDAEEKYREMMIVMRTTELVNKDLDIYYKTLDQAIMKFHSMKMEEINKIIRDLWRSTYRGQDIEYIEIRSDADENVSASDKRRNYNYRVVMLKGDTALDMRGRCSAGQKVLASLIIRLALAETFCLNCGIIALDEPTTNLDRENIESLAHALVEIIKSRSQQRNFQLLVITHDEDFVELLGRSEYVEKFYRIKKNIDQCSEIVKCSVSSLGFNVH

B1: endogenous USP4 (enzyme, UniProt Q13107 1-963)
chain: MAEGGGCRERPDAETQKSELGPLMRTTLQRGAQWYLIDSRWFKQWKKYVGFDSWDMYNVGEHNLFPGPIDNSGLFSDPESQTLKEHLIDELDYVLVPTEAWNKLLNWYGCVEGQQPIVRKVVEHGLFVKHCKVEVYLLELKLCENSDPTNVLSCHFSKADTIATIEKEMRKLFNIPAERETRLWNKYMSNTYEQLSKLDNTVQDAGLYQGQVLVIEPQNEDGTWPRQTLQSKSSTAPSRNFTTSPKSSASPYSSVSASLIANGDSTSTCGMHSSGVSRGGSGFSASYNCQEPPSSHIQPGLCGLGNLGNTCFMNSALQCLSNTAPLTDYFLKDEYEAEINRDNPLGMKGEIAEAYAELIKQMWSGRDAHVAPRMFKTQVGRFAPQFSGYQQQDSQELLAFLLDGLHEDLNRVKKKPYLELKDANGRPDAVVAKEAWENHRLRNDSVIVDTFHGLFKSTLVCPECAKVSVTFDPFCYLTLPLPLKKDRVMEVFLVPADPHCRPTQYRVTVPLMGAVSDLCEALSRLSGIAAENMVVADVYNHRFHKIFQMDEGLNHIMPRDDIFVYEVCSTSVDGSECVTLPVYFRERKSRPSSTSSASALYGQPLLLSVPKHKLTLESLYQAVCDRISRYVKQPLPDEFGSSPLEPGACNGSRNSCEGEDEEEMEHQEEGKEQLSETEGSGEDEPGNDPSETTQKKIKGQPCPKRLFTFSLVNSYGTADINSLAADGKLLKLNSRSTLAMDWDSETRRLYYDEQESEAYEKHVSMLQPQKKKKTTVALRDCIELFTTMETLGEHDPWYCPNCKKHQQATKKFDLWSLPKILVVHLKRFSYNRYWRDKLDTVVEFPIRGLNMSEFVCNLSARPYVYDLIAVSNHYGAMGVGHYTAYAKNKLNGKWYYFDDSNVSLASEDQIVTKAAYVLFYQRRDDEFYKTPSLSSSGSSDGGTRPSSSQQGFGDDEACSMDTN

What was measured:
[1] = molecular target: T1, GFP-FLAG-fused full-length (FL) USP4 (human) (UniProt Q13107); assay: co-IP; anti-GFP immunoprecipitation of GFP-FLAG-fused USP4 (full length from U2OS lysates; deletion mutants, cell line not stated), western blot for CtIP, RAD50 and MRE11; full length also after DNA damage induction
T1 sequence: B1 chain

USP4 UBL2 domain (human) = molecular target: T2, USP4 UBL2 domain (human) (UniProt Q13107); assay: as above
T2 sequence: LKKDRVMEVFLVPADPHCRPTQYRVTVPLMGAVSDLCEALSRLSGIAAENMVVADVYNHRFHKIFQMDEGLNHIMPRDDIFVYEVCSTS

[2] = molecular target: T3, GFP fused to wild-type USP4 (GFP-USP4 WT) (human) (UniProt Q13107); assay: co-IP; GFP immunoprecipitation of GFP-USP4 WT, CD, WT-C464A or CD-C464A from cell extracts (U2OS in Figure 5A), with or without ethidium bromide 50 ug/ml, western blot for CtIP, RAD50, MRE11
T3 sequence: B1 chain

[3] = molecular target: T4, GFP-USP4 CD-C464A (human) (UniProt Q13107); assay: as above
T4 sequence: B1 chain with C311A, C464A

[4] = molecular target: T5, GFP-USP4 WT-C464A (human) (UniProt Q13107); assay: as above
T5 sequence: B1 chain with C464A

[5] = molecular target: T6, endogenous USP4 (human (endogenous in 293FT)) (UniProt Q13107); assay: co-IP; immunoprecipitation of endogenous USP4 with an anti-USP4 antibody from 293FT cell extracts, western blot
T6 sequence: B1 chain

GFP-FLAG-MRE11 = molecular target: T7, GFP-FLAG-MRE11 (UniProt P49959); assay: co-IP; immunoprecipitation of GFP-CtIP or GFP-FLAG-MRE11 from 293FT cell extracts, probed for endogenous USP4
T7 sequence: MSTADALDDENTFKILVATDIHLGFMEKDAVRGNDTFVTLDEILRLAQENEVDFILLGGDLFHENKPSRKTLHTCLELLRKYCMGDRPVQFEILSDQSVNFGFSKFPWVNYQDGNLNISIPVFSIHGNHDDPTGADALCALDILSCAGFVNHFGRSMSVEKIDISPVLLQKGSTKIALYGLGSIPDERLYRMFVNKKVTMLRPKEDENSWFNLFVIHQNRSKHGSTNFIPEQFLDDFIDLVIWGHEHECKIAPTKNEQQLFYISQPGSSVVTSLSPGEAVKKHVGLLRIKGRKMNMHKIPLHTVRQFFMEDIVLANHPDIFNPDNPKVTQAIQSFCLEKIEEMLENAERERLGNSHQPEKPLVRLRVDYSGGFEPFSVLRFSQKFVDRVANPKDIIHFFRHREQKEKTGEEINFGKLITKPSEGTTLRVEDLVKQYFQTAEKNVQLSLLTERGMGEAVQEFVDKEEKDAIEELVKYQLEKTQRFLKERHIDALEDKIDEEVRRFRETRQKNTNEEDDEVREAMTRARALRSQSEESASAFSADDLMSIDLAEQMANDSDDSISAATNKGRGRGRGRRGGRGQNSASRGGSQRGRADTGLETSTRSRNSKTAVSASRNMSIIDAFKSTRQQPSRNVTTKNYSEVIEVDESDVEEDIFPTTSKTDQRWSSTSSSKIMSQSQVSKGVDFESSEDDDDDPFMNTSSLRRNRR

Molecule	binding [1]	binding (USP4 UBL2 domain (human))	binding [2]	binding [3]	binding [4]	binding [5]	binding (GFP-FLAG-MRE11)
RAD50 (from UniProt Q92878 1-1312)	binds	no binding	binds	binds	binds	binds	–
B1	–	–	–	–	–	–	binds
